The source of these data is ChEMBL document CHEMBL4888484, “Replenishing the malaria drug discovery pipeline: Screening and hit evaluation of the MMV Hit Generation Library 1 (HGL1) against asexual blood stage Plasmodium falciparum ,using a nano luciferase reporter read-out” (2022).

Structures are written as SMILES. In all, about 150,000 compounds went through this assay and about 540 (0.36%) showed an effect of 50% or more. The list shows a part of the results.

As a reminder, the % Inhibition is the relative decrease from the control value, in per cent.

The test deals with Plasmodium falciparum. The test can be described thus: Primary screen in NF54 nanoGlo assay, in single point, at 2uM, 72h; a lower Z score goes with more inhibition. The class given is functional, Erythrocyte. The following applies: timepoint 72 hour.
In the case of `Cc1ccccc1C1(C(=O)Nc2nnc(NS(C)(=O)=O)s2)CCC1`, the “% Inhibition” value is listed as 2% and the Z score is -0.27.
The matching figures for `FC(F)(F)c1cccc(-n2cnnc2Cc2nnn[nH]2)c1`: 2% and -0.33.
The matching figures for `FC(F)(F)c1cccc(-c2noc(Cc3cnn(-c4ccccc4)c3)n2)n1`: -8% and 1.06.
In the same order, the values of `C[C@H](NCc1ccncc1Cl)c1ccc(S(C)(=O)=O)c(F)c1` are 3% and -0.65.
Regarding `Cc1oc(NC(=O)c2ccc(Cl)o2)nc1C1CC1`, the “% Inhibition” value is -8% and the Z score came to 1.57.
The matching figures for `O=C(CCCCC(=O)NC1CCCC1)NC1CCCC1`: 12% and -1.55.
In the same order, the values of `CCCN1N=C(C(=O)N2CCC(C)CC2)S(=O)(=O)c2ccc(C)cc21` are 8% and -0.98.
In the same order, the values of `Cn1nnc([C@](C)(O)c2ccccc2)n1` are -5% and 0.84.
`COc1cccnc1C(=O)N1CCS(=O)(=O)C[C@H]1C(C)(C)C`: the “% Inhibition” value is 1% and the Z score was -0.1.
In the same order, the values of `C[C@H]1CCCN(c2nn(CC(=O)Nc3ccc4c(c3)OCCO4)c(=O)c3ccccc23)C1` are -7% and 0.98.
In the same order, the values of `CC(C)c1nnc(-c2ccc(S(=O)(=O)N3CCOCC3)o2)o1` are -6% and 0.83.
In the same order, the values of `O=C1N(Cc2ccc(F)cc2)c2ccccc2C12OCCO2` are -16% and 2.99.
As to `Cc1cc(C(=O)N2CCC[C@H](c3nc(-c4cccnc4)no3)C2)c(C)o1`, the “% Inhibition” value was determined as 17% and the Z score is -2.2.
For `COc1cccc(NC(=O)Nc2ccc3c(c2)CN(CCc2ccc(OC)c(OC)c2)C(=O)[C@H](C)O3)c1`, the “% Inhibition” value is 0% and the Z score is -0.08.
In the same order, the values of `CC(NC(C)C(C)n1cccn1)C(=O)Nc1ncccn1` (stereo not given) are 11% and -1.5.
In the same order, the values of `Cn1nccc1C(=O)N1CCCC[C@H]1c1nc(-c2ccncc2)no1` are -19% and 2.06.
The matching figures for `Cc1ccc(CCNC(=O)c2noc(-c3ccc(C)cc3)n2)cc1`: -18% and 1.61.
With `CN(C)C(=O)N1CCN(CCCOc2ccccc2)[C@@H]2CS(=O)(=O)C[C@@H]21`, the “% Inhibition” value is listed as 1% and the Z score is -0.26.
Take `CCC(=O)N1CCC(NC(=O)N(CC)C[C@H](O)c2cccc(O)c2)CC1`: the “% Inhibition” value is recorded as -19% and the Z score came to 1.68.
The matching figures for `Cc1ccc(C)c(NC(=O)Cc2nc(Cc3ccccc3F)n[nH]2)c1`: 6% and -0.73.
In the same order, the values of `O=C(c1ncc2ccccc2c1O)N1CC[C@H](CC(F)(F)F)C1` are -3% and 0.47.
The matching figures for `C[C@@H](C(=O)N1CC(c2ccccn2)C1)N1CCCC1=O`: -1% and 0.14.
Consider `Cc1ncc(C(=O)N(C)[C@@H](C)c2ccon2)c(O)n1`, for which the “% Inhibition” value is -3% and the Z score was 0.5.
The matching figures for `CCOc1cc(N(C)CC2CCN(C)CC2)ncn1`: -1% and 0.09.
`Cc1ccc(Cl)cc1C(=O)N1CCOC[C@@H](CN(C)C)C1`: the “% Inhibition” value is listed as -2% and the Z score is on record as 0.33.
In the same order, the values of `Cc1ccc(C(=O)N2CC(C)CC(C)C2)cc1NCc1ncc[nH]1` (stereo not given) are 33% and -0.73.
In the same order, the values of `CC(C)(C)CN1CCCC(N2CCC(c3ncc[nH]3)C2)C1=O` (stereo not given) are -9% and 0.88.
In the same order, the values of `OC[C@@H]1CCN(c2nc(-c3ccc(F)cc3)cs2)C[C@@H]1O` are 9% and -1.22.
Take `Cc1cccc2ncnc(N(C)[C@@H](C)Cc3ccc(O)cc3)c12`: the “% Inhibition” value was 77% and the Z score is reported as -16.2.
On to `Oc1cccc(CNCCN2CC=CCC2)c1`, for which the “% Inhibition” value is given as -10% and the Z score was 1.98.
Take `COc1cc(NC(=O)Nc2cccc(C)c2C)cc2sc(NC(=O)c3ccccc3)nc12`: the “% Inhibition” value is 3% and the Z score is recorded as -0.52.
In the same order, the values of `O=C(NC1CCN(S(=O)(=O)c2ccccc2)CC1)N1CCCC[C@@H]1CO` are -3% and 0.52.
Take `COCCN=C([C@@H]1C(=O)Nc2ccc(C#N)cc21)N1CCN(c2ccccc2O)CC1`: the “% Inhibition” value was -3% and the Z score worked out at 0.55.
In the same order, the values of `O=C(Nc1cc(F)cc(Cl)c1)C(=O)N1C2CCC1CC(O)C2` (stereo not given) are -9% and 1.4.
The matching figures for `COCc1cccc(N[C@@H](C)c2nc3ccccc3o2)c1`: -8% and 1.19.
With `Cc1noc(C)c1COc1ccccc1CN1CCC2(CC[C@@H]2O)CC1`, the “% Inhibition” value was -5% and the Z score was found to be 0.6.
In the same order, the values of `Cc1ccc(NC(=O)N2CC[S+]([O-])CC2)cc1` are -13% and 2.09.
Take `Cc1cccc(CN2CCC[C@@]3(CCN(C(=O)c4[nH]nc5c4CCCC5)C3)C2)c1`: the “% Inhibition” value is reported as -12% and the Z score came to 1.73.
The matching figures for `Cc1cc(C#N)c(N2CC[C@@]3(CCCN(CC4CC4)C3=O)C2)nc1C`: -7% and 0.84.
The matching figures for `COc1ccc(CCN[C@H]2CCc3ccccc3NC2=O)cc1`: -5% and 0.8.
Regarding `CCCc1cc(Cn2cnc(-c3ccccc3)c2-c2ccc(CO)o2)on1`, the “% Inhibition” value worked out at 6% and the Z score is listed as -0.91.
On to `CCn1cc(OCc2cccc(NC(C)=O)c2)cn1`, for which the “% Inhibition” value is recorded as -5% and the Z score was found to be 0.68.
In the same order, the values of `C#CCN(CC=C)C(=O)CC(=O)Nc1ccccc1C` are 0% and 0.03.
In the same order, the values of `COC[C@H](C)S(=O)(=O)NC1CCC(C)(C)CC1` are 8% and -0.85.
In the same order, the values of `CS(=O)(=O)CCN1CCOc2ccc(Br)cc2C1` are -14% and 2.71.
For `COc1nccc(N2CCC[C@@](CO)(CC3CC3)C2)c1C#N`, the “% Inhibition” value is on record as -26% and the Z score is listed as 2.28.
The matching figures for `Nc1n[nH]c2c(Cl)c3nnc(-c4ccccc4)n3c(Cl)c12`: 37% and -4.76.
The matching figures for `FC(F)(F)Cn1ncnc1CCCn1cccn1`: -8% and 1.43.
The matching figures for `CC(C)[C@H](CNc1ccncc1F)N(C)C`: 2% and -0.24.
Consider `O=C(Nc1ccnn1C1CCN(C2CCCC2)CC1)c1ccccc1`, for which the “% Inhibition” value is on record as -3% and the Z score worked out at 0.56.
In the same order, the values of `O=C(Nc1cc(F)ccc1O)c1ccccc1NCc1cccnc1` are 6% and -1.
In the same order, the values of `CC(CC(O)c1ccccc1)NC1CCCC1NC(=O)OC(C)(C)C` (stereo not given) are -10% and 0.94.
In the same order, the values of `COc1ncccc1CNC(=O)c1ccc(-c2cccc(Br)c2)nc1C` are -36% and 4.25.
For `COc1ccc([C@H](C)NC(=O)c2ccc3ncnc(N4CCCCC4)c3c2)cc1`, the “% Inhibition” value is recorded as -15% and the Z score is 1.97.
In the same order, the values of `Cc1ccnc(NC(=O)[C@H](C)c2cccnc2)n1` are -8% and 0.97.
